The full ranking holds about 33,000 sequences; the median of “E-score (-0.5 to 0.5)” is about -0.01, and the highest 2% start at about 0.26. The list shows a part of the results.

From the supplement of paper PMC3334620 come the findings set out here.

The target of this test is Ste12 (UniProt P13574). Description: PBM E-score (8-mer binding enrichment) (E-score (-0.5 to 0.5)); higher = stronger / more preferred TF binding; most listed sequences are background and not binding sites. To be noted: protein concentration: 200 nM; construct: GST-DNA-binding domain. As for the experimental part:
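Universal 'all 10-mer' protein binding microarrays (Agilent AMADID 015681) probed with GST-tagged S. cerevisiae TFs (full-length or DBD) made by in vitro transcription/translation (PURExpress), about 100-200 nM. Bound TF was detected with fluorescent anti-GST. Each ungapped 8-mer (which stands for itself and its reverse complement) is scored by the PBM enrichment score (E-score), a modified Wilcoxon-Mann-Whitney statistic from -0.5 to +0.5, computed with the Universal PBM Analysis Suite. Scale: above 0.35 generally sequence-specific binding.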
For the sequence GGCATAAC, the “PBM E-score” value was 0.05.

As to AACATGGG, the “PBM E-score” value is 0.198.

On to ACCCGGGG, for which the “PBM E-score” value is -0.0905.

Regarding TAGTGGGA, the “PBM E-score” value is -0.0356.

Take GATTACGC: the “PBM E-score” value was -0.024.

Turning to TCAGGAAA, the “PBM E-score” value was -0.0165.

In the case of ATATTGGA, the “PBM E-score” value is -0.0137.

In the case of AAGTGATC, the “PBM E-score” value is -0.0308.

Take CTCGGTCA: the “PBM E-score” value turned out to be 0.0667.

Turning to CCGAGCCA, the “PBM E-score” value is -0.0123.

As for TAGTATGA, the “PBM E-score” value came to 0.112.

Take CGAAAGAG: the “PBM E-score” value was -0.00574.

Take GCAAATGA: the “PBM E-score” value was -0.0783.

Regarding AATTTGCT, the “PBM E-score” value was 0.0493.

Regarding CAAATGCA, the “PBM E-score” value was -0.211.

With AATTTAAT, the “PBM E-score” value amounted to 0.159.

Consider GCGAGAGC, for which the “PBM E-score” value was found to be 0.0234.

On to AGACAATA, for which the “PBM E-score” value worked out at 0.163.

For CATTATCA, the “PBM E-score” value was 0.0126.

Consider ACCGCTAA, for which the “PBM E-score” value was determined as 0.147.

Take AGCGAAAG: the “PBM E-score” value turned out to be 0.0699.

In the case of GAAAGTAC, the “PBM E-score” value is -0.00655.

On to AGAGCCCC, for which the “PBM E-score” value was -0.201.

CCACATAC: the “PBM E-score” value amounted to 0.00728.

Consider ACACTTGA, for which the “PBM E-score” value is -0.0763.

Take TCATAGAA: the “PBM E-score” value was 0.257.

For the sequence GACGATAC, the “PBM E-score” value is -0.0155.

With GACCAACA, the “PBM E-score” value came out at 0.0581.

As for ATAGAAGA, the “PBM E-score” value was -0.0128.

As to ACATAGGT, the “PBM E-score” value was -0.0419.

Turning to GCATCATA, the “PBM E-score” value amounted to 0.0871.

Consider ATCACGCC, for which the “PBM E-score” value is -0.129.

On to ACACACCA, for which the “PBM E-score” value came out at 0.0664.

GTAGACGA: the “PBM E-score” value is -0.129.

As for CCTACGCC, the “PBM E-score” value is -0.181.

With AGAGCGAG, the “PBM E-score” value is -0.078.

GACGTGAC: the “PBM E-score” value was -0.0822.

On to CGGACGTC, for which the “PBM E-score” value was -0.081.

In the case of ACCCAGAT, the “PBM E-score” value was determined as 0.0125.

Turning to ATAAGTCC, the “PBM E-score” value was -0.0367.

Take TCGAAGCA: the “PBM E-score” value is -0.118.

Consider CGCCATAA, for which the “PBM E-score” value was -0.108.

On to GAGAACAC, for which the “PBM E-score” value was -0.0603.

With GAACCACA, the “PBM E-score” value amounted to 0.0278.

For the sequence CGGTACGC, the “PBM E-score” value is -0.0607.

Take GGGCAGTA: the “PBM E-score” value is -0.0196.

With GGGTCACA, the “PBM E-score” value is -0.169.

In the case of CCTGTTCC, the “PBM E-score” value was -0.055.

As for CGTCGCAC, the “PBM E-score” value turned out to be 0.0641.

Regarding ACGGGATG, the “PBM E-score” value is -0.0724.

As for AGATTTCA, the “PBM E-score” value was 0.148.

Consider TATTAAGA, for which the “PBM E-score” value turned out to be 0.0777.

Turning to ATCTATTC, the “PBM E-score” value was found to be 0.0368.

With GTATTTGA, the “PBM E-score” value came to 0.178.

Regarding GGAGCGAA, the “PBM E-score” value was 0.0768.

Regarding ATGGCATC, the “PBM E-score” value was -0.0571.

For the sequence CCCAAAGA, the “PBM E-score” value is 0.18.

Consider CAGGTGTC, for which the “PBM E-score” value is -0.16.

For AGCCTCTG, the “PBM E-score” value is -0.135.

Regarding GATCTAGA, the “PBM E-score” value was -0.0902.

On to ACATCCAT, for which the “PBM E-score” value was -0.0954.

Regarding AACTAAGA, the “PBM E-score” value stood at 0.123.

In the case of GAAAGCGA, the “PBM E-score” value is 0.0278.

On to AACTGCTA, for which the “PBM E-score” value turned out to be 0.0158.

Regarding GACAGTGA, the “PBM E-score” value came to 0.0565.

For the sequence TACACGCA, the “PBM E-score” value was -0.16.

For TAAGCCAA, the “PBM E-score” value turned out to be 0.00854.

Consider ACACAATA, for which the “PBM E-score” value was found to be 0.199.

As for ATCTTGTA, the “PBM E-score” value is -0.0683.

As to TACGGACA, the “PBM E-score” value was -0.0887.

AGAATGTC: the “PBM E-score” value was -0.186.

As for ATGGAAGG, the “PBM E-score” value is -0.0965.

In the case of GATCCGTA, the “PBM E-score” value is -0.105.

CCTTGAGC: the “PBM E-score” value is 0.0231.

As for CACAACGG, the “PBM E-score” value was -0.204.

In the case of CATGGCCG, the “PBM E-score” value is 0.121.

Take CTTCGATC: the “PBM E-score” value was -0.0994.

Take TGCACACA: the “PBM E-score” value was -0.157.

For the sequence ATGGTACC, the “PBM E-score” value was -0.0804.

With AAACAGGC, the “PBM E-score” value is -0.0502.

Turning to GGAGAGAA, the “PBM E-score” value is -0.0614.

In the case of AAGAACAA, the “PBM E-score” value was 0.23.

On to ACTGTCAT, for which the “PBM E-score” value was 0.0059.

For the sequence AGATTTAC, the “PBM E-score” value came out at 0.114.

Consider GAACCTGC, for which the “PBM E-score” value was -0.118.

With AAGCCGTC, the “PBM E-score” value was -0.00203.

Turning to ATGACTCA, the “PBM E-score” value was -0.0126.

As to CTTCGAAA, the “PBM E-score” value turned out to be 0.132.

In the case of AAGTGAGG, the “PBM E-score” value is -0.111.

Turning to GTTCAAAC, the “PBM E-score” value was 0.221.

ATGAAGAG: the “PBM E-score” value stood at 0.112.

On to AACAGTCA, for which the “PBM E-score” value is -0.0148.

As to ACAGTCAT, the “PBM E-score” value is -0.144.

On to ACCGCTCC, for which the “PBM E-score” value was -0.0899.
